Here are results for 87 molecules from article PMC4336329 (PLoS ONE, 2015).

Among all 310,000 compounds or so, about 2,200 (0.71%) showed an effect of 50% or more. Effects have a minus sign here. Some of the results follow.

Chain of human ether-à-go-go-related gene (hERG) potassium channel (Q12809 whole entry, looked up): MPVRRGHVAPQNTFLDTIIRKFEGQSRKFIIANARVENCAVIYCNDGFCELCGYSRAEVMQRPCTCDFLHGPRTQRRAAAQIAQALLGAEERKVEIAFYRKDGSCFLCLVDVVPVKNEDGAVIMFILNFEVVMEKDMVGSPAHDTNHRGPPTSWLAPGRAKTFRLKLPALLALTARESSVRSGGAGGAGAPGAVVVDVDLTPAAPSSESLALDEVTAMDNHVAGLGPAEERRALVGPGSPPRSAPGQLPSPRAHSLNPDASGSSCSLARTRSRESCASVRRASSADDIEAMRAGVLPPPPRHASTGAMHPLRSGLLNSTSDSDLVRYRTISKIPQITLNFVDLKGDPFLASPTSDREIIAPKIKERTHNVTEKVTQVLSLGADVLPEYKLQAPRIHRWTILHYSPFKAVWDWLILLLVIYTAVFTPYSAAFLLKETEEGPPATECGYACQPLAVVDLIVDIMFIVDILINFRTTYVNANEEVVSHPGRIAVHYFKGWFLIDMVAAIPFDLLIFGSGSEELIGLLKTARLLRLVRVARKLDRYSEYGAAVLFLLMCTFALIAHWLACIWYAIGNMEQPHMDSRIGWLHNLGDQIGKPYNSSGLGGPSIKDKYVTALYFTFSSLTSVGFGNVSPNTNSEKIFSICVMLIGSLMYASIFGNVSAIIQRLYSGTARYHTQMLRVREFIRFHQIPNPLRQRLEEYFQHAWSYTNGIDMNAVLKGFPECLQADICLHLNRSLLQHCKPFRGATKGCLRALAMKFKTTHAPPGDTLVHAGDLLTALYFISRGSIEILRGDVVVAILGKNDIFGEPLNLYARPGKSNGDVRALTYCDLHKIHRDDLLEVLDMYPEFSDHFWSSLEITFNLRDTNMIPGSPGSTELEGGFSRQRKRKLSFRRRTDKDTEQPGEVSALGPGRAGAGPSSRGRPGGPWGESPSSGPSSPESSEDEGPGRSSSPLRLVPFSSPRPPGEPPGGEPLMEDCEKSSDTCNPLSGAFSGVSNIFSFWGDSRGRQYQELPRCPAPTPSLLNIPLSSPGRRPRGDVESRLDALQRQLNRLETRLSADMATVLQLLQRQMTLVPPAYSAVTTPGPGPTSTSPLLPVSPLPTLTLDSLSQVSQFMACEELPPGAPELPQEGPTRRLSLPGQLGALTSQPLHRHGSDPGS

This assay addresses human ether-à-go-go-related gene (hERG) potassium channel (human, UniProt Q12809). Nature of the assay: primary screen, population patch clamp on CHO cells stably expressing hERG.
Regarding `CCN(CC)C(=O)c1ccc(NC(=O)c2cccc(F)c2)cc1`, the “hERG current change (%, negative = inhibition) at 1uM” value is on record as -2.92%. `c1ccc(Cn2nc(-c3ccccc3)nc2-c2ccccc2)cc1`: the “hERG current change (%, negative = inhibition) at 1uM” value was found to be 12%. For `CCOc1ccccc1C1C(C#N)=C(N)Oc2cc(C)n(Cc3ccccn3)c(=O)c21` (stereo not drawn), the “hERG current change (%, negative = inhibition) at 1uM” value was -2.67%.

Consider `COc1ccc(NC(=O)c2ccc(NS(=O)(=O)c3c(C)noc3C)cc2)cc1OC`, for which the “hERG current change (%, negative = inhibition) at 1uM” value came to 24.5%.

Consider `CO/N=C/Cc1c([N+](=O)[O-])c(C)nn1C`, for which the “hERG current change (%, negative = inhibition) at 1uM” value was 13.7%. Regarding `COc1ccc2cc(C#N)c(N3CCN(Cc4nnnn4CCC(C)C)CC3)nc2c1`, the “hERG current change (%, negative = inhibition) at 1uM” value was 2.57%. The figure for `CC(Oc1ccccc1)C(=O)N/N=C/c1ccccn1` (stereo not drawn) is 1.86%; for `N#CCCn1cc(C(CC(=O)c2ccccc2)C(=O)O)c2ccccc21` (stereo not drawn) it is 16.8%. To `CCCOC(c1ccccc1)(c1ccccc1)C(Oc1nc(C)cc(C)n1)C(=O)O` (stereo not drawn) belongs 14.5%; to `Cc1c[nH]c2cccc(OCC(CNC(C)(C)C)OC(=O)c3ccccc3)c12.Cl` (stereo not drawn), 17.4%; to `COc1ccccc1CN1CC(C(=O)NCc2cccc(Cl)c2)CCC1=O` (stereo not drawn), 7.73%. Consider `Cc1ccc(NC(=S)N2CCN(S(=O)(=O)c3c(F)cccc3F)CC2)cc1C`, for which the “hERG current change (%, negative = inhibition) at 1uM” value was found to be 8.69%. Turning to `c1cc(-c2ccncc2)ccn1`, the “hERG current change (%, negative = inhibition) at 1uM” value came out at 16.2%. To `CC(C)Oc1ccc(/C=C(/NC(=O)c2ccccc2)C(=O)NC(Cc2ccccc2)C(=O)O)cc1` (stereo not drawn) belongs 14.6%. The figure for `CCCCCCCC(=O)NNC(=O)c1c(O)c2ccccc2n(CC)c1=O` is 15.8%; for `COc1ccccc1C/C(N)=N/OC(=O)COc1ccc(C)cc1` it is 0.816%; for `CC(=O)Nc1ccc(S(=O)(=O)NCc2ccc(C)cc2)cc1` it is 8.26%. To `CN(C)S(=O)(=O)c1cccc(NC(=O)c2cccc(S(=O)(=O)N3CCCCC3)c2)c1` belongs -4.77%; to `CCCN1C(=O)/C(=C/c2c(NCCCOC(C)C)nc3c(C)cccn3c2=O)SC1=S`, -1.3%. As for `CCN(CC)C(=O)c1ccc(C(=O)c2c(C)cc(C)cc2C)cc1`, the “hERG current change (%, negative = inhibition) at 1uM” value is listed as -13.9%. To `Cl.O=C(CCN1CCCC1Cc1ccccc1)c1ccc2c(c1)OCCO2` (stereo not drawn) belongs -21.9%.

For `C#Cc1ccc(C(=O)Nc2ccc(N3CCC(C)CC3)c(C(N)=O)c2)cc1`, the “hERG current change (%, negative = inhibition) at 1uM” value was found to be 0.866%.

As for `O=C(NCc1ccc2c(c1)OCO2)C1CC(c2cccc(Br)c2)=NO1` (stereo not drawn), the “hERG current change (%, negative = inhibition) at 1uM” value was -2.6%. As to `COc1ccnc(Oc2ccc(F)cc2)c1C(=O)N/C=N/OCc1ccc(Cl)cc1Cl`, the “hERG current change (%, negative = inhibition) at 1uM” value is recorded as 20.2%.

Consider `CO/N=C/c1ccc(Sc2ccc(C)cc2)c([N+](=O)[O-])c1`, for which the “hERG current change (%, negative = inhibition) at 1uM” value is reported as 8.8%. The figure for `Cc1ccc(S(=O)(=O)N(C)C)cc1NC(=O)C(C)OC(=O)/C=C/c1cccs1` (stereo not drawn) is -5.2%; for `O=C(O)C1CCCN1S(=O)(=O)c1ccc(Br)cc1` (stereo not drawn) it is 4.4%. To `COc1ccc(-c2nc3ccccc3c(=O)n2CC(C)C)cc1` belongs 17%; to `CCOc1ccc(Nc2oc(-c3cccc(Cl)c3)nc2C#N)cc1`, 20.2%. `CCO/C=N/c1c(C#N)c2c(c(=S)n1C)COC(C)(C)C2`: the “hERG current change (%, negative = inhibition) at 1uM” value is recorded as 18.8%. To `O=c1c2ccccc2nc(SCc2ccc([N+](=O)[O-])cc2)n1CCCO` belongs 7.99%; to `CN(C)/C=C/C(=O)c1ccc(Oc2ccccc2)cc1`, 13.9%. For the molecule `Cc1ccc(C(=O)OCC(=O)Nc2cc(S(C)(=O)=O)ccc2Cl)cc1S(=O)(=O)N1CCCCC1`, the “hERG current change (%, negative = inhibition) at 1uM” value is -6.53%. To `CCOc1cccc(NC(=O)/C(C#N)=C\c2cccnc2)c1` belongs 16.4%; to `CN1C(=O)CSc2ccc(NC(=O)NCCC3=CCCCC3)cc21`, 9.65%; to `CC(=O)Nc1nn(C)c2nc(C)cc(C)c12`, 9.38%. The figure for `O=C(NCC(=O)N(c1cccnc1)C(C(=O)NCc1ccco1)c1ccccc1)c1ccco1` (stereo not drawn) is 3.6%. To `COCCc1ncc(CN2CCC(C(=O)Nc3cccc(-c4cscn4)c3)CC2)cn1` belongs 12.2%.

Consider `O=C(CC1NC2CCCCC2NC1=O)Nc1cccc(C(F)(F)F)c1` (stereo not drawn), for which the “hERG current change (%, negative = inhibition) at 1uM” value was 4.08%. The figure for `O=C(c1cccs1)N1C2CCC1CC(O)(c1cccnc1)C2` (stereo not drawn) is 0.852%.

For `C=CCSc1nnc(NC(=O)c2nc(SCC)ncc2Cl)s1`, the “hERG current change (%, negative = inhibition) at 1uM” value was -4.9%.

Turning to `CC(=O)NC(Cc1ccc(C)cc1)C(=O)NC1CCN(c2ncccc2[N+](=O)[O-])CC1` (stereo not drawn), the “hERG current change (%, negative = inhibition) at 1uM” value stood at 15.2%. Turning to `COc1ccc(N2CCN(C(=O)C(=O)c3c[nH]c4ccccc34)CC2)cc1`, the “hERG current change (%, negative = inhibition) at 1uM” value came to 19%. To `COc1ccc(CCOC(=O)CNC(=O)c2ccc(Cl)cc2Cl)cc1` belongs 13.2%. `CN(C)CCCNC(=O)C(=O)NCC1CCCO1` (stereo not drawn): the “hERG current change (%, negative = inhibition) at 1uM” value is 11.2%.

Turning to `Cc1ccccc1C(=O)Nc1nnc(CC(=O)N/N=C/c2ccco2)s1`, the “hERG current change (%, negative = inhibition) at 1uM” value worked out at 4.55%. On to `CCOC(=O)CC(=O)CSc1ncnc2c1oc1ccccc12`, for which the “hERG current change (%, negative = inhibition) at 1uM” value is on record as 12.4%. To `CCOC(=O)CSc1nc(C)nc2c1sc1nc(C)c(C(C)=O)c(-c3ccc(OC)cc3)c12` belongs 4.4%; to `CN(C(=O)CC1C(=O)NCCN1Cc1cccc(C(F)(F)F)c1)C1CCOCC1` (stereo not drawn), 15.5%; to `CSc1nnc(CCNS(=O)(=O)c2ccc(Br)cc2)n1C`, 12%. To `Cc1cc(Cl)ccc1OCC(=O)NCCCn1ccnc1` belongs -5.64%.

Turning to `Cc1nn(C)c(C)c1S(=O)(=O)N1CCC(C(=O)Nc2ccc3c(c2)OCCO3)CC1`, the “hERG current change (%, negative = inhibition) at 1uM” value is 12.2%. With `COc1ccc(N2CCN(S(=O)(=O)CCNC(=O)c3ccc4c(c3)OCO4)CC2)cc1`, the “hERG current change (%, negative = inhibition) at 1uM” value amounted to 11.6%.

`CCCCn1c(Oc2ccc(C(=O)OC)cc2)nc2c1c(=O)n(C)c(=O)n2C`: the “hERG current change (%, negative = inhibition) at 1uM” value is 4.42%. To `Cn1cc(C(=O)c2ccc(Cl)cc2Cl)cc1C(=O)N/N=C(\N)COc1ccc(Cl)cc1Cl` belongs -2.64%; to `N=c1oc2ccccc2cc1-c1nc(-c2ccccc2)cs1`, 3%. To `O=C(CCN1C(=O)c2ccccc2C1=O)Nc1sc2c(c1C(=O)NCC1CCCO1)CCC2` (stereo not drawn) belongs 12.4%; to `CCCc1cc(=O)oc2cc(OCC(=O)N3CCOCC3)c(Cl)cc12`, 11%; to `CC1CCN(C(=O)CN(c2ccc(Oc3ccccc3)cc2)S(C)(=O)=O)CC1`, 7.34%. Consider `O=C(CCN1C(=O)C2CC=C(Cl)CC2C1=O)NCc1ccco1` (stereo not drawn), for which the “hERG current change (%, negative = inhibition) at 1uM” value is listed as 0.455%. To `Cc1ccn(CCNC(=O)C2CCC(=O)N(Cc3ccc(Cl)cc3)C2)n1` (stereo not drawn) belongs 18.5%; to `O=C1NC(=O)/C(=C\c2cn(Cc3ccccc3F)c3ccccc23)N1`, 12.3%; to `CCCCn1c(N)c(N(CC(C)C)C(=O)C2CC(=O)N(Cc3ccccc3)C2)c(=O)[nH]c1=O` (stereo not drawn), 6.31%. `CC(=O)NC(=S)Nc1ccc(NC(=O)c2cccs2)cc1`: the “hERG current change (%, negative = inhibition) at 1uM” value is on record as 5.61%. The figure for `Cn1nc(C(=O)Nc2sc3c(c2C#N)CCCC3)ccc1=O` is 8.91%; for `CCCOC(=O)c1c(NC(=O)/C=C/c2cnn(C)c2C)sc(C(=O)OCC)c1C` it is 11.5%; for `COc1cccc(-c2nn(C)c3sc(C(=O)NCc4ccc(C)cc4)cc23)c1` it is 8.72%. The figure for `O=C(CCc1ccccc1)NNC(=O)c1ccccn1` is 13.5%. In the case of `C=CCn1c(C)c(/C=C/c2cc[n+](C)cc2)c2ccccc21.[I-]`, the “hERG current change (%, negative = inhibition) at 1uM” value turned out to be 2.44%. The figure for `Cc1noc(C)c1COc1ccccc1C(=O)NCCc1ccc(Cl)cc1` is 2.76%; for `Cc1ccc2oc(-c3ccco3)cc(=O)c2c1` it is 17.6%. To `N#CC1=C(N)Oc2cc(O)ccc2C1c1cccnc1` (stereo not drawn) belongs 17%. The figure for `O=C(O)c1ccc(COc2ccccc2/C=C2\NC(=O)N(Cc3ccccc3F)C2=O)cc1` is 9.5%.

For the molecule `CC(C)C(NS(=O)(=O)c1c(Cl)cccc1Cl)C(=O)OCC(=O)c1c[nH]c2ccccc12` (stereo not drawn), the “hERG current change (%, negative = inhibition) at 1uM” value is listed as 7.79%. For `O=C(Oc1ccc(Cl)cc1)c1ccc(N2CCOCC2)c([N+](=O)[O-])c1`, the “hERG current change (%, negative = inhibition) at 1uM” value is listed as 1.31%.

`CCCCCCCCCCCCOC1OC(CO)C(O)C(O)C1NC(C)=O` (stereo not drawn): the “hERG current change (%, negative = inhibition) at 1uM” value was determined as 4.7%. For `CCOCc1c(C(=O)OCC(=O)NCc2ccc(F)cc2)oc2ccccc12`, the “hERG current change (%, negative = inhibition) at 1uM” value was -1.49%. The figure for `Cc1coc(C)c1C(=O)CC1(O)C(=O)N(CCc2ccccc2)c2ccccc21` (stereo not drawn) is 10.8%.

With `CCN(CC)S(=O)(=O)c1ccc(NCc2ccccc2)nc1`, the “hERG current change (%, negative = inhibition) at 1uM” value is on record as -0.48%. The figure for `CCSc1nc(N)c2c3c(sc2n1)CCC3` is -0.031%; for `CCCC(=O)Nc1ccc(Cl)c(-c2nc3ncccc3o2)c1` it is 13.7%; for `Cc1ccc(NC(=O)CCNS(=O)(=O)c2ccc(Br)s2)cc1` it is 14.5%. As to `COc1cccc(NC(=O)CSc2nc(N)cc(N)n2)c1`, the “hERG current change (%, negative = inhibition) at 1uM” value was found to be 5.5%. The figure for `O=C(CN1C(=O)CC(c2ccco2)Sc2ccccc21)NCc1ccc2c(c1)OCO2` (stereo not drawn) is -8.24%; for `CCCN(CCC)C(=O)c1cc([N+](=O)[O-])cc2c1-c1ccc([N+](=O)[O-])cc1C2=C(C#N)C#N` it is 2.63%. The figure for `O=[N+]([O-])c1ccc(C[n+]2ccc(Cc3ccccc3)cc2)cc1.[Cl-]` is 2.71%. To `CCN(CC(=O)Nc1ccc(N2CCOCC2)cc1)CC(=O)NC(C)(C)C` belongs 6.36%.
